Experimental data as given in PubChem BioAssay AID504845 (National Center for Advancing Translational Sciences (NCATS), 2011).
About 150 (0.038%) of roughly 390,000 compounds were called active. Inconclusive results, whose numbers are uncertain, are shown with a selection of clear calls. Calls come from the whole dose curve; as a rule, active = well fitted inhibition curve with a large enough effect; inconclusive = small, poorly fitted or top-dose-only effect; inactive = no such curve, though single readings can be large or run the other way. Potencies of inconclusive entries are doubtful fits and often do not repeat.
% is set by controls: 0 for no effect and ±100 for the full control effect; potency is the fitted concentration of half-maximal effect; tags give direction and shape of the fitted curve.
Note: nearly all actives have a fitted effect of over 75% in size.

What follows are compounds tested against Regulator of G-protein signaling 4 (Homo sapiens) (UniProt P49798) (assay: Inhibitors of Regulator of G Protein Signaling (RGS) 4: qHTS). Conditions: Transcreener GDP fluorescence polarization, RGS4-accelerated GTP hydrolysis; series mostly up to 114 µM; activity change, negative = inhibition: at the top concentration.
UniProt P49798, sequence (P49798 whole entry, looked up): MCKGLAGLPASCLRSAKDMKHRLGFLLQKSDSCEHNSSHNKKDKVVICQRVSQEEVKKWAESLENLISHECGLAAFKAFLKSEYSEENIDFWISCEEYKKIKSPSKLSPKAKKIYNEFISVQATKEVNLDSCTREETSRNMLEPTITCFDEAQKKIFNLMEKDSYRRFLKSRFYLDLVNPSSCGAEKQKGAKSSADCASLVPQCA
Summary of the method: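 MLSMR compounds (23 nl, pin-transferred) preincubated 10 min at room temperature with a 500nM (2x) first reagent, then RGS4 at 900nM (2x) plus Transcreener GDP mix added; fluorescence polarization (620/688 nm) read before and after 90 min at 30 °C.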
`COc1ccc(Cl)cc1NC(=O)c1c(NCc2cccnc2)sc2c1CCCC2` was tested, and the Potency was inconclusive: 79.4 µM [inhibitor, partial curve, poor fit].
`O=C1CCC2S/C(=C/Nc3ccc(C(F)(F)F)cc3)C(=O)N12` (configuration not stated) was tested, and the Potency was inconclusive: 17.8 µM [inhibitor, full curve, poor fit].
`CCOC(=O)N1CCC(N2CCN(c3ccccc3)CC2)CC1` was tested, and the “activity change, negative = inhibition” value was inactive: -8.56%.
For `C=CCN1c2ccccc2[C@]23C[C@@H](C(=O)OC)N(C(=O)c4cccs4)C2=NC(C(=O)OC)=C(C(=O)OC)[C@H]13`, the “activity change, negative = inhibition” value was inactive: 5.18%.
`O=C(/C=C/c1cc2c(cc1Br)OCO2)NCc1ccc(Cl)cc1` was tested, and the Potency was inconclusive: 89.1 µM [inhibitor, single point].
With `Cc1ccccc1NC(=O)Cn1nnc(C(=O)NCc2ccco2)c1N` the Potency was inconclusive: 44.7 µM [inhibitor, partial curve, poor fit].
For `COc1ccc(Nc2nc(C)c3ccccc3n2)cc1`, the Potency was inconclusive: 79.4 µM [inhibitor, single point].
With `CCN1C(=O)CSc2ccc(C(=O)NCc3ccccc3)cc21` the “activity change, negative = inhibition” value was inactive: -17.3%.
In the case of `Cc1cc(C)c(S(=O)(=O)ON2C(=O)c3ccccc3C2=O)cc1C`, the Potency is reported as inconclusive: 79.4 µM [inhibitor, partial curve, poor fit].
`Cc1ccc(NN=Nc2nc3c([nH]2)c(=O)n(C)c(=O)n3C)cc1` was tested, and the Potency was inconclusive: 50.1 µM [inhibitor, partial curve, poor fit].
For `CCC1=NN2C(=N)/C(=C/c3ccc(OS(=O)(=O)c4ccccc4)cc3)C(=O)N=C2S1`, the “activity change, negative = inhibition” value was inactive: -45.4%.
For `COc1ccc(CCNC(=O)CSCc2ccc([N+](=O)[O-])cc2)cc1OC`, the Potency was inconclusive: 56.2 µM [inhibitor, partial curve, poor fit].
With `CCCCCc1c(C)nc(Nc2ccc(F)cc2)[nH]c1=O` the “activity change, negative = inhibition” value was inactive: 5.96%.
For `CCOC(=O)c1cccc(NC(=O)N2Cc3ccccc3Oc3ncccc32)c1`, the “activity change, negative = inhibition” value was inactive: -13.6%.
`Cc1cc(C)cc(OCCOCCn2c(-c3ccc(Cl)cc3)nc3ccccc3c2=O)c1` was tested, and the Potency was inconclusive: 100 µM [inhibitor, partial curve, poor fit].
In the case of `S=c1nc(-c2ccccc2)c(-c2ccccc2)n[nH]1`, the Potency is reported as inconclusive: 17.8 µM [inhibitor, full curve, poor fit].
For `COC(=O)Cc1ccc(NC(=O)c2ccccc2Br)cc1`, the Potency was inconclusive: 35.5 µM [inhibitor, full curve, poor fit].
With `CCOC(=O)C(=CNc1ccc(N2CCCCC2)c(S(=O)(=O)Nc2ccccc2OC)c1)C(=O)OCC` the Potency was inconclusive: 10 µM [inhibitor, full curve, poor fit].
With `Cc1ccc(NC(=O)Cn2ccn(Cc3ccc(Cl)cc3)c(=O)c2=O)cc1C` the “activity change, negative = inhibition” value was inactive: 7.07%.
For `CC(=O)c1cccc(-n2c(CCC(=O)O)ccc2-c2ccccc2)c1`, the Potency was inconclusive: 17.8 µM [inhibitor, full curve, poor fit].
`C=Cc1ccc2c(c1)N(C)C(=C)S2` was tested, and the Potency was inconclusive: 25.1 µM [inhibitor, full curve, poor fit].
With `C/C(=C\C(=S)Nc1ccccc1)Nc1cccc2ccccc12` the Potency was inconclusive: 79.4 µM [inhibitor, partial curve, poor fit].
In the case of `CN(C1CCCCC1)S(=O)(=O)c1ccc(NC(=S)NC(=O)c2cccs2)cc1`, the Potency is reported as inconclusive: 10 µM [inhibitor, full curve, poor fit].
In the case of `CCCCNc1c(-c2ccc(OC)c(SC3CCCCC3)c2)nc2cnccn12`, the “activity change, negative = inhibition” value is reported as inactive: -10.2%.
In the case of `O=C(Nn1nnnc1Nc1ccccc1)C12CC3CC(CC(C3)C1)C2`, the Potency is reported as inconclusive: 44.7 µM [inhibitor, partial curve, poor fit].
For `COC(=O)CCC(=O)OC1(C)C(=O)C2=CN(CC3CC3)C(c3ccc(OC)cc3)=CC2=C(Br)C1=O` (configuration not stated), the Potency was inconclusive: 44.7 µM [inhibitor, partial curve, poor fit].
In the case of `COc1ccc(CCNc2nc(-c3sc(N)nc3C)cs2)cc1OC`, the Potency is reported as inconclusive: 79.4 µM [inhibitor, partial curve, poor fit].
`CNC(=O)c1c(NC(=O)CS(=O)(=O)c2ccccc2)sc(C)c1C` was tested, and the “activity change, negative = inhibition” value was inactive: 29%.
With `C/C(CCc1oc2ccc(Br)cc2c1-c1ccc(C)o1)=N/O` the Potency was inconclusive: 56.2 µM [inhibitor, partial curve, poor fit].
In the case of `Cc1ccc(C(=O)N2CCC(C(=O)c3ccc(F)cc3)CC2)cc1`, the “activity change, negative = inhibition” value is reported as inactive: 7.76%.
For `Cc1ccc(CN(Cc2ccco2)C(=O)c2ccccc2Cl)o1`, the “activity change, negative = inhibition” value was inactive: -6.6%.
With `C#C[C@]1(O)CC[C@H]2[C@@H]3CCC4=Cc5oncc5CC4(C)[C@H]3CCC21C` (some centres not stated) the Potency was inconclusive: 37.6 µM [inhibitor, single point].
In the case of `CCN(CC)S(=O)(=O)c1ccc(O)c(NC(=O)COc2ccc(S(=O)(=O)N3CCOCC3)cc2)c1`, the Potency is reported as inconclusive: 31.6 µM [inhibitor, full curve, poor fit].
With `COc1ccccc1N1C(=O)c2cccc3c(C(=O)O)ccc(c23)C1=O` the Potency was inconclusive: 100 µM [inhibitor, single point].
`O=C(CCN1CCCCC1)c1cccc(Cl)c1` was tested, and the Potency was inconclusive: 79.4 µM [inhibitor, partial curve, poor fit].
With `CN1C(=O)c2ccccc2Sc2ccc(NC(=O)NCc3ccccc3Br)cc21` the Potency was inconclusive: 79.4 µM [inhibitor, single point].
`Brc1cccc(CNc2nc3ccccc3n2CCN2CCOCC2)c1` was tested, and the Potency was inconclusive: 50.1 µM [inhibitor, partial curve, poor fit].
`Cc1ccccc1-c1nnc(Cc2ccccc2)o1` was tested, and the “activity change, negative = inhibition” value was inactive: -3.64%.
`CCn1c(CSc2n[nH]c(N)n2)nc2cc(C(=O)O)ccc21` was tested, and the Potency was inconclusive: 50.1 µM [inhibitor, partial curve, poor fit].
In the case of `N#C/C(=C\c1ccccc1)C(=O)N(c1ccccn1)C1CCCCC1`, the Potency is reported as inconclusive: 79.4 µM [inhibitor, single point].
For `CC(C)(C)C1CCc2[nH]nc(C(=O)O)c2C1` (configuration not stated), the Potency was inconclusive: 89.1 µM [inhibitor, single point].
`CC(C)NC(=O)c1ccc(OC2CSC2)cc1` was tested, and the Potency was inconclusive: 89.1 µM [inhibitor, single point].
